Here are results for 153 variants from a collection of fitness landscapes (doi:10.1126/science.1257360).

The list shows a part of the results.

B1: PhoQ; a variant is named by its letters at X, in order, P23837 (parent)
chain: MKKLLRLFFPLSLRVRFLLATAAVVLVLSLAYGMVALIGYSVSFDKTTFRLLRGESNLFYTLAKWENNKLHVELPENIDKQSPTMTLIYDENGQLLWAQRDVPWLMKMIQPDWLKSNGFHEIEADVNDTSLLLSGDHSIQQQLQEVREDDDDAEMTHSVAVNVYPATSRMPKLTIVVVDTIPVELKSSYMVWSWFIYVLSANLLLVIPLLWVAAWWSLRPIEALAKEVRELEEHNRELLNPATTRELTSLVRNLNRLLKSERERYDKYRTTLTDLTHSLKTPLXXLQXXLRSLRSEKMSVSDAEPVMLEQISRISQQIGYYLHRASMRGGTLLSRELHPVAPLLDNLTSALNKVYQRKGVNISLDISPEISFVGEQNDFVEVMGNVLDNACKYCLEFVEISARQTDEHLYIVVEDDGPGIPLSKREVIFDRGQRVDTLRPGQGVGLAVAREITEQYEGKIVAGESMLGGARMEVIFGRQHSAPKDE

The variants in the test derive from B1. Nature of the test: enrichment ratio after two sorts for PhoP signalling (ratio (wild type AVST 3.29)); higher = more functional. The settings on record: with PhoP (E. coli).
In the case of YHPN, the enrichment ratio was ≤ 0.25.

For QKGN, the enrichment ratio was ≤ 0.25.

Consider MNPR, for which the enrichment ratio was ≤ 0.25.

As for LCVS, the enrichment ratio is ≤ 0.25.

For PWRH, the enrichment ratio is ≤ 0.25.

KSML: the enrichment ratio was ≤ 0.25.

As for IQAP, the enrichment ratio was ≤ 0.25.

For QDNA, the enrichment ratio was ≤ 0.25.

Take DSSE: the enrichment ratio is ≤ 0.25.

For GMPK, the enrichment ratio is ≤ 0.25.

For VSEK, the enrichment ratio is ≤ 0.25.

Regarding HNLN, the enrichment ratio is ≤ 0.25.

Regarding LAAH, the enrichment ratio is ≤ 0.25.

In the case of DHLI, the enrichment ratio is ≤ 0.25.

As to PSIS, the enrichment ratio is ≤ 0.25.

For TTDK, the enrichment ratio is 1.85.

In the case of PCLD, the enrichment ratio was ≤ 0.25.

For the variant NQMG, the enrichment ratio was ≤ 0.25.

For SVLY, the enrichment ratio was 0.677.

As to GGHV, the enrichment ratio is ≤ 0.25.

Consider HQWW, for which the enrichment ratio was ≤ 0.25.

Regarding DFCQ, the enrichment ratio was ≤ 0.25.

Take NNVI: the enrichment ratio is ≤ 0.25.

As for VSRK, the enrichment ratio is ≤ 0.25.

LHYR: the enrichment ratio is ≤ 0.25.

DQLC: the enrichment ratio is ≤ 0.25.

As for EKQI, the enrichment ratio is ≤ 0.25.

Consider DQRL, for which the enrichment ratio is ≤ 0.25.

For MLLY, the enrichment ratio is ≤ 0.25.

For the variant GIIY, the enrichment ratio was ≤ 0.25.

Regarding NGNL, the enrichment ratio is ≤ 0.25.

Regarding EDNN, the enrichment ratio is ≤ 0.25.

Take QVLK: the enrichment ratio is ≤ 0.25.

Consider MVGQ, for which the enrichment ratio was ≤ 0.25.

Turning to LNWN, the enrichment ratio was ≤ 0.25.

As to TMVH, the enrichment ratio is ≤ 0.25.

LEEN: the enrichment ratio was ≤ 0.25.

On to QLIA, for which the enrichment ratio was ≤ 0.25.

In the case of YSQM, the enrichment ratio is 1.08.

For LCGT, the enrichment ratio is ≤ 0.25.

For NMWT, the enrichment ratio is ≤ 0.25.

In the case of DRNK, the enrichment ratio is ≤ 0.25.

Regarding HRTT, the enrichment ratio was ≤ 0.25.

Turning to RNYI, the enrichment ratio was ≤ 0.25.

YNDT: the enrichment ratio is ≤ 0.25.

Consider LAQD, for which the enrichment ratio was ≤ 0.25.

Consider ELGQ, for which the enrichment ratio was ≤ 0.25.

Regarding IEIF, the enrichment ratio was ≤ 0.25.

As to FKGQ, the enrichment ratio is ≤ 0.25.

With SRMQ, the enrichment ratio is ≤ 0.25.

MRTK: the enrichment ratio is ≤ 0.25.

MFHN: the enrichment ratio was ≤ 0.25.

As to PNIQ, the enrichment ratio is ≤ 0.25.

On to VKVS, for which the enrichment ratio was ≤ 0.25.

As for NKLQ, the enrichment ratio is ≤ 0.25.

Regarding WQTP, the enrichment ratio was ≤ 0.25.

On to TWFG, for which the enrichment ratio was ≤ 0.25.

Regarding YVKW, the enrichment ratio was ≤ 0.25.

APGS: the enrichment ratio was ≤ 0.25.

For VHCF, the enrichment ratio is ≤ 0.25.

Regarding QLKY, the enrichment ratio is ≤ 0.25.

Consider AIIA, for which the enrichment ratio is 3.7.

IPYQ: the enrichment ratio is ≤ 0.25.

Consider EFFH, for which the enrichment ratio was ≤ 0.25.

Take VFVM: the enrichment ratio was ≤ 0.25.

As for LNCA, the enrichment ratio is ≤ 0.25.

With WPIT, the enrichment ratio was ≤ 0.25.

In the case of QCIC, the enrichment ratio was ≤ 0.25.

Regarding FDVH, the enrichment ratio was ≤ 0.25.

Turning to PLQH, the enrichment ratio is ≤ 0.25.

On to VNHS, for which the enrichment ratio was ≤ 0.25.

GVFM: the enrichment ratio was ≤ 0.25.

Take WPWW: the enrichment ratio is ≤ 0.25.

For the variant WLLM, the enrichment ratio was ≤ 0.25.

With LEYS, the enrichment ratio came to 2.14.

As for MQAI, the enrichment ratio was 7.47.

Turning to GLKL, the enrichment ratio is ≤ 0.25.

Regarding FGKQ, the enrichment ratio is ≤ 0.25.

Take WHQE: the enrichment ratio was ≤ 0.25.

ESEV: the enrichment ratio was ≤ 0.25.

With VTKQ, the enrichment ratio is ≤ 0.25.

Take HNHA: the enrichment ratio was ≤ 0.25.

As for RLCC, the enrichment ratio is ≤ 0.25.

Turning to DKLQ, the enrichment ratio is ≤ 0.25.

As to HTRC, the enrichment ratio was ≤ 0.25.

KTLL: the enrichment ratio was ≤ 0.25.

For SSAC, the enrichment ratio was 11.3.

As for DPCP, the enrichment ratio is ≤ 0.25.

In the case of MRGT, the enrichment ratio is ≤ 0.25.

INQV: the enrichment ratio is ≤ 0.25.

Take NQHC: the enrichment ratio was ≤ 0.25.

EAQL: the enrichment ratio is ≤ 0.25.

In the case of MDGY, the enrichment ratio is ≤ 0.25.

On to PIAL, for which the enrichment ratio was ≤ 0.25.

In the case of DDYK, the enrichment ratio was ≤ 0.25.

For the variant SQWD, the enrichment ratio was ≤ 0.25.

For ESHK, the enrichment ratio is ≤ 0.25.

As for VDYT, the enrichment ratio is ≤ 0.25.

For the variant ILDL, the enrichment ratio is ≤ 0.25.

On to NYDS, for which the enrichment ratio is ≤ 0.25.

In the case of RKLK, the enrichment ratio was ≤ 0.25.

Regarding HHKG, the enrichment ratio is ≤ 0.25.

On to KGFP, for which the enrichment ratio was ≤ 0.25.

Take VMLH: the enrichment ratio was ≤ 0.25.

As to DGFP, the enrichment ratio is ≤ 0.25.

For the variant GMAV, the enrichment ratio came to 1.84.

Consider FCKP, for which the enrichment ratio was ≤ 0.25.

As for KDEL, the enrichment ratio is ≤ 0.25.

In the case of ELDR, the enrichment ratio was ≤ 0.25.

Consider RQYP, for which the enrichment ratio was ≤ 0.25.

On to FVIE, for which the enrichment ratio was ≤ 0.25.

As to EHVL, the enrichment ratio is ≤ 0.25.

Regarding QSSL, the enrichment ratio was 9.11.

For KETI, the enrichment ratio is ≤ 0.25.

With PMIK, the enrichment ratio was ≤ 0.25.

As to SMNP, the enrichment ratio is ≤ 0.25.

On to SRHR, for which the enrichment ratio is ≤ 0.25.

Consider KREP, for which the enrichment ratio is ≤ 0.25.

Turning to TFFA, the enrichment ratio is ≤ 0.25.

Consider GCCN, for which the enrichment ratio was ≤ 0.25.

Turning to RRSF, the enrichment ratio was ≤ 0.25.

For QSQV, the enrichment ratio was ≤ 0.25.

With DCEF, the enrichment ratio was ≤ 0.25.

SHAE: the enrichment ratio is ≤ 0.25.

Regarding GYAW, the enrichment ratio is ≤ 0.25.

With IYLM, the enrichment ratio is ≤ 0.25.

Consider YHMV, for which the enrichment ratio was ≤ 0.25.

In the case of GTIS, the enrichment ratio was ≤ 0.25.

With VQNT, the enrichment ratio was ≤ 0.25.

With HWHN, the enrichment ratio is ≤ 0.25.

VCYC: the enrichment ratio was ≤ 0.25.

QNIY: the enrichment ratio is ≤ 0.25.

In the case of TTDH, the enrichment ratio came to 0.73.

Regarding WEMT, the enrichment ratio was ≤ 0.25.

On to TEMH, for which the enrichment ratio worked out at 134.

YNFQ: the enrichment ratio is ≤ 0.25.

Take VKNF: the enrichment ratio was ≤ 0.25.

Turning to YEVM, the enrichment ratio is ≤ 0.25.

With TQDV, the enrichment ratio was ≤ 0.25.

Take ICLY: the enrichment ratio was ≤ 0.25.

Turning to AWEH, the enrichment ratio is ≤ 0.25.

VNVK: the enrichment ratio is ≤ 0.25.

For SLAL, the enrichment ratio came out at 10.6.

As to DSYN, the enrichment ratio was ≤ 0.25.

Turning to QEHG, the enrichment ratio was 11.2.

MLHF: the enrichment ratio is ≤ 0.25.

Consider RFTN, for which the enrichment ratio was ≤ 0.25.

As for NACF, the enrichment ratio was ≤ 0.25.

Regarding NKRI, the enrichment ratio is ≤ 0.25.

For KAAQ, the enrichment ratio was ≤ 0.25.

As for MVND, the enrichment ratio was ≤ 0.25.

In the case of VHHI, the enrichment ratio was ≤ 0.25.

Take FAHD: the enrichment ratio is ≤ 0.25.
